From PubChem BioAssay AID1963576 (National Center for Advancing Translational Sciences (NCATS), 2024)
Out of some 46,000 compounds screened, about 60 (0.1%) were called active. Not shown: some 3% with an inconclusive outcome. The call rests on the fitted dose curve; in most records, active means well fitted inhibition curve with a large enough effect; inconclusive means small, poorly fitted or top-dose-only effect; inactive means no such curve, though single readings can be large or run the other way. Some of the results follow.

Assay: Primary qHTS assay for Inhibitors of ovarian cancer metastasis using an organotypic tumor microenvironment (TME) model. Further: nearly all actives have a fitted effect of over 65% in size.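 On activity change, negative = inhibition: plate controls were DMSO wells for no effect and tomatine positive control wells for full effect.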
Conditions: SKOV3ip1-GFP adhesion/invasion on 3D omental model, fluorescence; series mostly up to 45.8 µM; activity change, negative = inhibition: at the top concentration
In short: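 A 3D layer of primary human omental fibroblasts, mesothelial cells, fibronectin and collagen I, grown 48 hr, received SKOV3ip1-GFP cells in serum-free medium plus compounds at 0.36-46 umol/L. After 2 hr RT and 16 hr 37 C, fixed adherent GFP cells were counted; normalized to DMSO and tomatine.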

outcome, inactive:
COc1ccc(CCn2c3c(c(=O)[nH]c2=O)C(NC(=O)c2ccc(C(C)(C)C)cc2)(C(F)(F)F)C(=O)N3)cc1OC (stereo not given)
O=C(NCc1ccco1)c1ccc2c(c1)N(Cc1ccc(Cl)cc1)C(=O)c1ccccc1S2
Cc1ccccc1CN1C(=O)c2ccccc2S(=O)c2ccc(C(=O)NCc3ccc4c(c3)OCO4)cc21 (stereo not given)
O=C(CSc1ncc2c(n1)-c1ccc(Cl)cc1N(Cc1ccccc1)S2(=O)=O)Nc1ccccc1C(F)(F)F
CC(=O)Nc1c(C)nn(-c2ccccc2)c1N1CCC(C(=O)Nc2cccc(C(F)(F)F)c2)CC1
CCCCOc1ccccc1C1CC(=O)Nc2cc(OC)c(OC)cc21 (stereo not given)
COC(=O)c1c(NC(=O)/C=C/c2ccc(OC)c(OC)c2)sc2c1CCC2
CCOC(=O)Cn1c(=O)n(CC2CCCO2)c2nc(-c3c(F)cccc3Cl)nc(C(N)=O)c21 (stereo not given)
COCCNC(=O)CSc1nnc2[nH]c(=O)cc(C)n12
O=C(CC1N=C2c3ccccc3N=C(SCC(=O)Nc3ccc(F)cc3)N2C1=O)NCc1ccc2c(c1)OCO2 (stereo not given)
Cc1cccc(NC(=O)Cn2cc(S(=O)(=O)Cc3ccccc3Cl)c3ccccc32)c1
Cc1ccccc1C(c1c(C)n(C)n(-c2ccccc2)c1=O)c1c(C)n(C)n(-c2ccccc2)c1=O
CC(C)c1ccc(NC(=O)Cn2c(=O)n(Cc3nc(-c4ccccc4)no3)c(=O)c3cc4c(cc32)OCO4)cc1
CCCN(Cc1cccs1)C(=O)Nc1ccc(F)c(Cl)c1
CCc1ccc(NC(=O)c2ccc(F)c(S(=O)(=O)NCCc3ccc(OC)c(OC)c3)c2)cc1
Cn1c(Oc2ccccc2)nc2c1c(=O)n(Cc1ccc(Cl)cc1Cl)c(=O)n2C
Cc1ccc(C)c(NC(=O)Cn2c(=O)n(Cc3ccc4c(c3)OCO4)c(=O)c3ccccc32)c1
COC(=O)c1ccccc1NC(=O)Cn1c(=O)cc(C)c2c(C)nn(-c3cccc(Cl)c3C)c21
O=C(CCn1cnc2onc(-c3ccc(F)cc3)c2c1=O)N1CCN(c2ccccc2F)CC1
N#Cc1cccc(NC(=O)CCNS(=O)(=O)c2ccc3c(c2)CCN3C(=O)C2CC2)c1

Activity change, negative = inhibition, inactive:
Cc1cc2nc(-c3ccc(NC(=O)c4cc5ccccc5o4)cc3)oc2cc1C -7.28%
CCOc1ccc(Nc2nc3c(S(=O)(=O)c4ccc(C(C)C)cc4)nnn3c3ccsc23)cc1 -8.85%
COc1ccc(N2CCN(S(=O)(=O)CCNC(=O)c3c(F)cccc3Cl)CC2)cc1 12%
COc1cccc(CNC(=O)CCC(=O)N2CC(C)Sc3ccccc32)c1 (stereo not given) -24.2%
CCc1nnc2c3ccccc3nc(N3CCN(c4cc(C)ccc4C)CC3)n12 6.2%
Cc1ccccc1CNC(=O)c1ccc(CN2CC(=O)N3CCCCC3C2=O)cc1 (stereo not given) -8.31%
CCCN(CCC)C(=O)C1CCCN(c2ncnc3c2nc2n3CCCCC2)C1 (stereo not given) 0.184%
Cc1nc2c(c(C)nn2C(C)(C)C)c(C)c1CCC(=O)Nc1ccc(Br)cc1Br -4.87%
Cc1ccc(NS(=O)(=O)c2c(C)nc3sc(C)cn3c2=O)c(C)c1 5.41%
Cc1ccc(S(=O)(=O)c2nnn3c2nc(N2CCC(C(N)=O)CC2)c2cc(Cl)ccc23)cc1C -21.4%
Cc1ccc(NC(=O)[C@@H](c2ccccc2)N2Cc3ccccc3C2=O)cc1F -9.85%
CCC(=O)Nc1cc2nn(-c3ccc(C)cc3)nc2cc1C -3.53%
C[C@@H](Oc1cc(-n2cnc3ccc(CN4CCN(C)CC4)cc32)sc1C(N)=O)c1ccccc1C(F)(F)F 0.642%
CCOC(=O)Cn1c(=O)n(CC2CCCO2)c2nc(-c3ccc(CC)cc3)nc(C(N)=O)c21 (stereo not given) 2.04%
Cc1c(C(=O)NCc2ccc(F)cc2)sc2nc(-c3ccc(F)cc3)cn12 3.94%
COc1ccc(CCNC(=O)Cn2c(=O)c3cccn3c3ccccc32)cc1OC -2.97%
CCCc1nn2c(=O)cc(COC(=O)c3ccco3)nc2s1 -3.62%
Cc1noc(Cn2c(=O)c3ccccc3n(CC(=O)Nc3ccc(C(C)C)cc3)c2=O)n1 -0.528%
CCN(CC)c1cc2c(cc1F)c(=O)c(S(=O)(=O)c1ccccc1)cn2C -2.7%
CCn1cc(S(=O)(=O)c2ccc(C)cc2C)c(=O)c2cc(F)c(N3CCCCC3)cc21 -2.29%
Cc1cc(C)cc(N(CC(=O)NCc2ccccc2Cl)S(=O)(=O)c2c(C)[nH]c(=O)[nH]c2=O)c1 0.797%
CCc1cccc(NS(=O)(=O)c2cc(-c3cnc(C)o3)ccc2OC)c1 67.2%
CCc1ccccc1NS(=O)(=O)c1cc(Br)cc2c1N(C(=O)C1CC1)CC2 -1.85%
CCN(CC)c1ccc(NC(=O)CN2C(=O)c3cccnc3Oc3ccc(Cl)cc32)c(C)c1 8.59%
O=C(NCc1ccccc1)c1ccc2c(c1)nc1n2CCOC1 -4.64%
CC(Nc1oc(-c2ccc(COc3ccc(Cl)cc3)o2)nc1C#N)c1ccccc1 (stereo not given) 8.18%
CCN(CC)CCCNC(=O)CN1C(=O)COc2ccc(S(=O)(=O)N3CCC(C)CC3)cc21 58.5%
CCOC(=O)c1ccc(NC(=O)c2cc3c([nH]c2=O)CC(c2ccccc2)CC3=O)cc1 (stereo not given) 8.98%
COc1ccc(C(=O)Nc2nc3n(n2)C(c2ccc(F)cc2)C=C(c2ccc(Cl)cc2)N3)cc1 (stereo not given) -9.37%
CCn1c(=O)c2sccc2n2c(CCCC(=O)Nc3ccc(OC)c(OC)c3)nnc12 -8.84%
Cc1cc(C)n(C(C)CC(=O)Nc2ccc(C)c(F)c2)n1 (stereo not given) -29.1%
Cc1ccccc1Cn1c(SCc2ccc(C(=O)NCCc3ccccc3)cc2)nc2ccncc21 -2.11%
CSc1ncc(Cl)c(C(=O)N(Cc2ccc(C(C)C)cc2)C2CCS(=O)(=O)C2)n1 (stereo not given) -9.61%
COc1cccc(-c2n[nH]c3c2C(c2ccccn2)N(C)C3=O)c1 (stereo not given) -2.52%
COc1ccc(-n2cc(-c3ccc4c(c3)OCO4)n(CC(=O)Nc3cccc(C)c3)c2=O)cc1 1.19%
CCCCC1CCC(CCCC(C)CCC(=O)O)CC1 (stereo not given) 7.65%
CCC1CN(C(=O)N2CCC(C(=O)NCc3ccco3)CC2)c2ccccc2O1 (stereo not given) -0.919%
Cc1ccc(-n2c(SCC(=O)Nc3c(C)cccc3C)nc(O)c(C)c2=O)cc1 -2%
COCCNC(=O)C(=O)NCC(c1cccnc1)N1CCN(c2ccccc2)CC1 (stereo not given) 9.76%
O=C(Cc1ccc(Cl)cc1)Nc1ccc2nn(-c3ccccc3)nc2c1 2.82%
N#CC(=Cc1ccc(O)c(O)c1)C(=O)NCc1ccccc1 -5.02%
Cc1cc(C)c(CN2C(=O)c3ccccc3S(=O)(=O)c3ccc(C(=O)OCC4CCCO4)cc32)c(C)c1 (stereo not given) -1.98%
Cc1ccc(-n2ncc3c(=O)n(Cc4ccccc4C)cnc32)cc1C -4.79%
CCOc1ccccc1NC(=O)CN1C(=O)C2(SCC(=O)N2c2ccc(C)cc2)c2ccccc21 (stereo not given) 11.4%
CC(=O)c1cccc(NC(=O)N2CCC(CN3CCCCC3)CC2)c1 -10.3%
CCOc1ccc2c(c1)c(=O)c(C(=O)c1ccc(C)cc1)cn2Cc1ccccc1OC -2.1%
C[C@H]1O[C@H](O[C@H]2[C@H](O)[C@@H](O)[C@@H](O[C@H]3[C@H](O)[C@@H](O)C(O)O[C@H]3CO)O[C@H]2CO)[C@H](O)[C@@H](O)[C@H]1N[C@H]1C=C(CO)[C@@H](O)[C@H](O)[C@@H]1O (stereo not given in full) -10.3%
CS(=O)(=O)N1CCc2cc(C(=O)Nc3ccc(S(N)(=O)=O)cc3)ccc21 -8.17%
COc1cc(Cl)c(NC(=O)C(NS(=O)(=O)c2cccs2)C(C)C)c(OC)c1 (stereo not given) 6.82%
CC(C)(C)OC(=O)N1CCC(c2c(C(=O)N3CCCCC3)cnn2-c2ccc(F)cc2F)CC1 2.86%
Cc1ccc(-n2ncc(C(=O)NCCCN3CCN(C)CC3)c2C2CCN(C(=O)OC(C)(C)C)CC2)c(C)c1 -27%
Cc1cccc(C(=O)OCc2cc(=O)n3nc(-c4cccs4)sc3n2)c1 -1.07%
CCCSc1nnc2n(-c3cccc(C)c3)c(=O)c3c4c(sc3n12)CCCC4 3.93%
CNS(=O)(=O)c1cn(CC(=O)N2CCN(c3ccccc3OC)CC2)cc1S(=O)(=O)NC -8.94%
Cc1ccc(C(=O)CC2(O)C(=O)N(Cc3ccccc3)c3ccccc32)c(C)c1 (stereo not given) 6.41%
Cc1ccc2c(CC(=O)N(Cc3cccc(Cl)c3)C3CCS(=O)(=O)C3)coc2c1 (stereo not given) -4.99%
CCOC(=O)C1CCCN(C(=O)c2ccc(NC(=O)c3nsc4ccccc34)cc2)C1 (stereo not given) 6.65%
COc1ccc(Cl)cc1NC(=O)Cn1cnc2sc(C)c(S(=O)(=O)N3CCN(c4ccccc4OC)CC3)c2c1=O 0.162%
COc1cccc(N2CCN(Cc3cc(=O)oc4cc(C)ccc34)CC2)c1 -8.45%
Cc1ccc2c(c1)C(c1ccc(F)cc1)N(C(=O)c1cccc(C(F)(F)F)c1)CC(=O)N2 (stereo not given) -4.44%
Cc1ccc(-n2nnnc2CNC(=O)c2ccccc2C)cc1C 21.2%
CN(C)c1ccc(CNC(=O)Cn2ccc3cc(S(=O)(=O)N4CCCCCC4)ccc32)cc1 -5.86%
COc1ccc(-c2nc(Cn3c(=O)cc(C)c4c(C)nn(-c5ccccc5)c43)c(C)o2)c(OC)c1 0.0189%
Cc1cc(C)cc(-n2ccnc2SCC(=O)Nc2nc3ccc(C)cc3s2)c1 -15.2%
CC1(COc2ccc3c(c2)ncn3-c2ccc3cccc(N4CCC(N)CC4)c3n2)COC1 -3.65%
Cc1c2cnn(CC(=O)N3CCN(c4ccc(F)cc4)CC3)c(=O)c2c(C)n1Cc1ccccc1F 4.99%
CCOC(=O)c1c(C)[nH]c(CCC(=O)NCCCN2CCN(c3ccccc3F)CC2)c1C 14.3%
O=C(Nc1nnc(S(=O)(=O)N2CCc3ccccc32)s1)c1ccccc1Cl -0.162%
COc1cc(Cl)c(C)cc1NC(=O)c1cnn(-c2ccc(C)cc2)c1-n1cccc1 -0.811%
CCOc1ccc(NC(=O)CCS(=O)(=O)c2ccc3nc(C)sc3c2)cc1 1.06%
